{
  "source": "PubChem BioAssay AID1240",
  "about": "(Sanford-Burnham Center for Chemical Genomics, 2008)",
  "note": "In all, about 50,000 compounds went through this assay and about 800 (1.6%) showed an effect of 50% or more. The list shows a part of the results.",
  "data": [
    {"molecular_target": "Bcl-2-like protein 10 (Homo sapiens) (UniProt Q9HD36)", "sequence (Q9HD36 whole entry, looked up)": "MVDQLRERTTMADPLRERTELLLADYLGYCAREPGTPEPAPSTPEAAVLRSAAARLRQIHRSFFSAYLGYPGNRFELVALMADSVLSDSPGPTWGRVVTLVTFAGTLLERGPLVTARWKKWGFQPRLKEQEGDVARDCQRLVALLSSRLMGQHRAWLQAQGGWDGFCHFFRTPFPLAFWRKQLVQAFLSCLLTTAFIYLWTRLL", "test": "Phenotype converters, Bcl-B/TR3 peptide binding displacement, primary biochemical FP (AID 1240);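 note: 0% = Bcl-B with tracer peptide and DMSO and 100% = tracer peptide lacking Bcl-B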", "settings": "GST-Bcl-B / FITC-TR3 peptide fluorescence polarization; stronger effect = higher value; compound at 3.75 mg/L", "units": {"displacement": "%"}, "values": [
      {"molecule": "COC(=O)CN(c1ccccc1Cl)S(C)(=O)=O", "displacement": 2},
      {"molecule": "N#CC1=C(N)Oc2cc(N)ccc2C1C1CCCCC1", "note": "(configuration not stated)", "displacement": -6},
      {"molecule": "COC(=O)c1ccc(C(=O)OC)c(NC(=O)c2c(OC)cccc2OC)c1", "displacement": 15.9},
      {"molecule": "CC(C)(C)c1ccccc1OCCCCCCN1CCOCC1", "displacement": 5.8},
      {"molecule": "O=C(Nc1ccccc1[N+](=O)[O-])c1c(-c2cnc3ccccc3c2C(=O)Nc2ccccc2[N+](=O)[O-])cnc2ccccc12", "displacement": -1.5},
      {"molecule": "Cc1cc(C)c2oc(-c3ccc(NC(=O)COc4ccccc4[N+](=O)[O-])cc3)nc2c1", "displacement": 89.3},
      {"molecule": "O=C(NC(NC(=S)Nc1ccc(Br)cc1)C(Cl)(Cl)Cl)c1ccccc1F", "note": "(configuration not stated)", "displacement": -1.1},
      {"molecule": "COc1ccc(N(CC(=O)Nc2ccc(C)cc2C)S(=O)(=O)c2ccc(C)cc2)cc1", "displacement": 4.5},
      {"molecule": "COc1ccc(-n2nc3cc(C)c(NC(=O)c4cc(Cl)ccc4OC)cc3n2)cc1", "displacement": -5.3},
      {"molecule": "CC(C)C(=O)Nc1cccc2c1C(=O)N(c1ccccc1)C2=O", "displacement": 5.7},
      {"molecule": "O=C1Nc2ccccc2/C1=N/N1C(=O)CSC1=S", "displacement": 26.4},
      {"molecule": "COc1ccc(/C=C(\\NC(=O)c2ccccc2)C(=O)Nc2ccc(Cl)cc2)cc1OC", "displacement": 1.2},
      {"molecule": "CCOc1cc(/C=C2\\C(=O)NC(=S)N(c3ccc(Br)cc3)C2=O)ccc1O", "displacement": 6.3},
      {"molecule": "COc1ccc([N+](=O)[O-])cc1NC(=S)Nc1ccccc1", "displacement": -5.5},
      {"molecule": "CC1=C(C(=O)Nc2ccccc2Cl)C(c2cccc(Br)c2)NC(=O)N1", "note": "(configuration not stated)", "displacement": 3.9},
      {"molecule": "CC1(C)CC(=O)CC(=Nc2ccccc2N)C1", "displacement": 5.8},
      {"molecule": "Cc1ccccc1NC(=O)c1ccc2ccccc2c1", "displacement": -2.7},
      {"molecule": "O=C1C(=O)N(C2CCCCC2)C(=O)N1c1ccc(Cl)cc1", "displacement": 1.1},
      {"molecule": "COc1ccc(CCN(C(=S)Nc2ccccc2)C2CC(=O)N(c3ccccc3)C2=O)cc1", "note": "(configuration not stated)", "displacement": -5.8},
      {"molecule": "CCOC(=O)C1=C(C)N=C2SCC(=O)N2C1c1cc(OC)ccc1OC", "note": "(configuration not stated)", "displacement": 0.9},
      {"molecule": "COc1cccc(OCCCCCCN2CCCC2)c1", "displacement": 8.5},
      {"molecule": "NC(=O)c1c(NC(=S)NC(=O)c2ccccc2Cl)sc2c1CCC2", "displacement": 13.7},
      {"molecule": "NC(=O)NC1CCCc2c1[nH]c1ccc(Cl)cc21", "note": "(configuration not stated)", "displacement": -10.7},
      {"molecule": "c1cc2c(c(NCc3ccncc3)c1)CCCC2", "displacement": -0.1},
      {"molecule": "Cc1ccc2[nH]c3nc(N/N=C/c4cc(Br)c(O)c(Br)c4)nnc3c2c1", "displacement": 1.3},
      {"molecule": "COc1cccc(OCCOc2ccc(/C=C3\\C(=O)NN(c4ccccc4)C3=O)cc2)c1", "displacement": 1.9},
      {"molecule": "CCC(C)c1ccc(NS(=O)(=O)c2ccc(NC(C)=O)cc2)cc1", "note": "(configuration not stated)", "displacement": 12.3},
      {"molecule": "CN(c1ccccc1C(=O)O)C1SC(=O)N(c2ccccc2)C1=O", "note": "(configuration not stated)", "displacement": 138},
      {"molecule": "CC(=O)Nc1nonc1-c1nc2ccccc2n1Cc1nnc(C)o1", "displacement": 30.5},
      {"molecule": "O=C(N/N=C/c1ccccn1)c1[nH]c2ccc([N+](=O)[O-])cc2c1-c1ccccc1", "displacement": -15.3},
      {"molecule": "CCCC1C(c2ccccc2)NC(c2ccccc2)C(C)C1(C)O", "note": "(configuration not stated)", "displacement": -6.6},
      {"molecule": "COc1cc(OC)cc(C(=O)Nc2cccc(-c3nc4cc(C)cc(C)c4o3)c2C)c1", "displacement": 58.7},
      {"molecule": "N#CC(C(N)=O)C(SCc1ccccc1)c1ccc(Br)cc1", "note": "(configuration not stated)", "displacement": 10.5},
      {"molecule": "O=C(CSc1cccc2cccnc12)Nc1nnc(-c2ccccc2)s1", "displacement": 8.7},
      {"molecule": "O=C(/C=C/c1ccc(F)cc1)Nc1ccccc1[N+](=O)[O-]", "displacement": 12.8},
      {"molecule": "COc1cc(OC)c(OC)cc1/C=C/c1cc(C(F)(F)F)[nH]c(=O)n1", "displacement": 7.5},
      {"molecule": "O=C1NC(=S)S/C1=C\\c1cccc(OS(=O)(=O)c2ccc([N+](=O)[O-])cc2)c1", "displacement": -32.2},
      {"molecule": "Cc1ccc(NC(=O)c2ccc3c(c2)C(=O)N(CC2CCCO2)C3=O)cc1C", "note": "(configuration not stated)", "displacement": 8.5},
      {"molecule": "CCOc1ccc(N(CC(=O)N2CCOCC2)S(C)(=O)=O)cc1", "displacement": 11.1},
      {"molecule": "Cc1cc(Br)ccc1S(=O)(=O)NCc1ccccc1", "displacement": 3.9},
      {"molecule": "CC(=O)NS(=O)(=O)c1ccc(NS(=O)(=O)Cc2ccccc2)cc1", "displacement": -7.9},
      {"molecule": "CCc1ccc(CN2CCN(C(=O)c3cccc(OC)c3)CC2)cc1", "displacement": -17},
      {"molecule": "CCC(C)NC(=O)c1ccc(CN(c2ccc(C)c(C)c2)S(C)(=O)=O)cc1", "note": "(configuration not stated)", "displacement": -6},
      {"molecule": "O=C(Nc1ccccc1[N+](=O)[O-])C12CC3CC(CC(C3)C1)C2", "displacement": -11},
      {"molecule": "COc1cccc(CN2CCN(S(C)(=O)=O)CC2)c1OC", "displacement": 11},
      {"molecule": "O=C(/C=C/c1ccc([N+](=O)[O-])cc1)C1C(=O)c2ccccc2C1=O", "displacement": -6.3},
      {"molecule": "Cc1cc(=O)[nH]c(Nc2nc(C)c3cccc(C)c3n2)n1", "displacement": 1.9},
      {"molecule": "COc1cccc(C2C(C(=O)Nc3ccccc3)=C(C)N=c3s/c(=C\\c4ccc5c(c4)OCO5)c(=O)n32)c1", "note": "(configuration not stated)", "displacement": 12.1},
      {"molecule": "CC(=O)N1c2ccccc2C(N(C(=O)COc2ccc(Cl)cc2Cl)c2ccccc2)CC1C", "note": "(configuration not stated)", "displacement": -0.9},
      {"molecule": "C(=N\\n1cnnc1)/c1cc2ccccc2[nH]1", "displacement": 11.1},
      {"molecule": "COc1cc(C(=O)NCCc2ccc(Cl)cc2)cc(OC)c1OC", "displacement": -6.6},
      {"molecule": "COC(=O)c1ccccc1NC(=O)c1cc(-c2ccc(OC)cc2OC)nc2ccccc12", "displacement": -3},
      {"molecule": "CCCCOC(=O)COc1ccc(S(=O)(=O)c2ccc(OCC(=O)OCCCC)cc2)cc1", "displacement": 14.4},
      {"molecule": "Cc1ccc(-c2cc(-c3ccccc3O)nc(N/N=C/c3cccnc3)n2)cc1", "displacement": 27.3},
      {"molecule": "CCOc1cccc(C=Nc2cc(CC)ccc2O)c1O", "displacement": 2.8},
      {"molecule": "O=C1CCC(C(=O)c2ccccc2)C(O)=C1C=NCCO", "note": "(configuration not stated)", "displacement": 7.2},
      {"molecule": "COc1ccc(C2=C/C(=C/c3ccc(-c4cccc([N+](=O)[O-])c4)o3)C(=O)O2)cc1", "displacement": 7.4},
      {"molecule": "Cc1ccccc1NC(=O)c1c(NC(=O)c2cccc(Cl)c2)sc2c1CCCC2", "displacement": 0.4},
      {"molecule": "Cn1c(=O)c([N+](=O)[O-])c(N2CCN(C(=O)c3ccccc3)CC2)c2ccccc21", "displacement": 7.2},
      {"molecule": "O=C(O)c1ccc(-c2ccc(/C=C3\\SC(=S)N(Cc4ccccc4)C3=O)o2)cc1", "displacement": -31.9},
      {"molecule": "O=C(c1ccccc1Br)N(C1CCCCC1)C1CCCCC1", "displacement": 1.4},
      {"molecule": "O=C(Nc1ccccc1)Nc1nnc(SCCOc2ccccc2)s1", "displacement": 9.8},
      {"molecule": "CCN1C(=O)c2cccc3c(NC(=O)c4ccc(S(=O)(=O)N5CCOCC5)cc4)ccc1c23", "displacement": 8.7},
      {"molecule": "CNC(=O)CN(c1ccc(OC)cc1OC)S(C)(=O)=O", "displacement": 17.7},
      {"molecule": "O=C(NCCO)C(=O)Nc1nc(C23CC4CC(CC(C4)C2)C3)cs1", "displacement": -23.5},
      {"molecule": "CC1CCN(C2=NC(=O)/C(=C/c3cccc(O)c3)S2)CC1", "displacement": -14.9},
      {"molecule": "COc1ccc(C2CC(C(F)(F)F)n3ncc(C(=O)N(C)Cc4ccccc4)c3N2)cc1OC", "note": "(configuration not stated)", "displacement": 3.7}
    ]}
  ]
}
